Experimental data reported in the supplement of paper PMC11417369.
This is one part of the list.

Test system: PfHDP1 homeodomain (GST-tagged)
Assay: gcPBM binding intensity (ln(normalized median fluorescence intensity)); higher = stronger DNA binding
Method in brief: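 GST-fused DNA-binding domains of P. falciparum, expressed in E. coli, were applied at about 25 μg on average for 1 h to an Agilent 4 × 180k array of primer-extended double-stranded 36-bp intergenic genomic probes and negative controls. Binding intensity is the highest Masliner-normalised natural-log median intensity across replicate spots of either probe orientation, measured with Alexa488 anti-GST antibody and a 488 nm scan.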

| Sequence | gcPBM binding intensity (ln) |
| --- | --- |
| ATAAAATATTAGACATTTATTAATATTACACATATC [XGTACX_negctrl_site364] | 6.15 |
| TTTTATTTTTTATTTGCACACAATATGTAAAAAAAT [CACACA_site2927] | 10.6 |
| ATTAAATGCACATATACACACACCCAATTTTAAGTT [CACACA_site3049] | 11.3 |
| AAAAAAAAAAAAAACACACACACACCCACATATACA [CACACA_site2663] | 6.78 |
| TATAAGGTGTCCTATACACACTCCAATAAATATATA [CACACA_site2091] | 6.34 |
| AGGAACATAAGCAATGTATAAACATAAAACTATAAT [CACACA_negctrl_site1832] | 6.46 |
| TAAAGAGAAAAACATACACACACAACAAAATATGTA [CACACA_site8872] | 6.79 |
| TATTAATTAAACCATACACACATAACTTTTTTATAA [CACACA_site6526] | 6.43 |
| ATTTTTTTCTTAGGAGTGCACTTATATTTATTTTAT | 10.3 |
| TTATAATAAAGAGGAGTGCAAAAAAAAAAAAAAAAA | 7.87 |
| AATCAAAATATATCTACACACATTTAAGTAACACAT [CACACA_site3482] | 6.7 |
| TAAATATCAAAACACACACACAAAAGTGAATAAATA [CACACA_site3762] | 6.64 |
| ACAAGGAATATATAAGATAATTTTAAATATAACACG [CACACA_negctrl_site1734] | 6.48 |
| ATATATATAATTTTTACACACGCAATAAATATATAT [CACACA_site218] | 6.73 |
| AAAAAAAAAAAAAACACACACACAAGAGTATATAAA [CACACA_site6580] | 6.69 |
| ATGAATTTATTACATTGTACATTTTTAAAAGGTTAC [XGTACX_site124] | 6.4 |
| TTATATATTTTTTTTTGTACATAGAAGAGGGAAAAA [XGTACX_site2178] | 6.49 |
| TATACATACATACATACACACACACCGATATATACA [CACACA_site8184] | 7.18 |
| TTCCAAAAAATTATTACACACATATGGGCACATATA [CACACA_site679] | 6.54 |

| Sequence | gcPBM binding intensity (ln) |
| --- | --- |
| ATTCTATAATATAAGAGTACTTATTTTTTTTAATTT [XGTACX_site7671] | 6.33 |
| TATAAAATTAAACAAAGTACTAGACATATATATAGA [XGTACX_site3247] | 6.57 |
| AATGTTATTTGTTTATCACACATTAGGATGTTTATA [CACACA_site5710] | 6.54 |
| ACGCTAATTATGTGCACACAAATTAAAGGTCTACAA [CACACA_site147] | 11.4 |
| TGTTTCTGCTCTGGACATTTTTAAAAAAGGGAAAGC [CACACA_negctrl_site1463] | 6.8 |
| ACAAAAAAACATGAAACACACACAAATATATATATA [CACACA_site8566] | 8.55 |
| TGCCTATTTTGGATGTGTACACATATATATATTTAT [XGTACX_site6741] | 7.68 |
| TTATAATATTATAAAATAACATTTATTAATTATTGG [CACACA_negctrl_site1794] | 6.43 |
| TTATTATATTAAAATTGTACTTGCTTTCAATATGAT [XGTACX_site5305] | 6.25 |
| TAAACGTTATATAGTGCATGTCATATTTTATTATAT [TGCATGCA_site935] | 7.18 |
| TACACGCTAAAATACACACACACACCCACATATATA [CACACA_site4153] | 6.88 |
| TTCCCTCCTCAAAATTGTACTAGAATAATAACATAA [XGTACX_site8765] | 6.38 |
| TTTTTTAAACATATTATGTGTATTACATAGTTATGC [XGTACX_negctrl_site596] | 6.28 |
| AGCTATGTATTCTACACACACATACAGACATATATA [CACACA_site3428] | 6.72 |
| TTTGCATTTCTTAATTGTACTTAAAAAAAAAATAAT [XGTACX_site758] | 6.41 |
| ACGATGCATTAATCTGCACACCACAACAAAACGTTT [CACACA_site899] | 8.64 |
| AATCATTTTATTATCCTAACAAAAAAAAAATATATT [CACACA_negctrl_site115] | 6.09 |
| ACAACGCGTTAAATGTGTACATATTTATAAGTATAT [XGTACX_site8777] | 6.48 |
| AAAAAAAAAAAAAAATTAAAGTAATGGAAAAAAAAA [CACACA_negctrl_site1666] | 6.11 |

| Sequence | gcPBM binding intensity (ln) |
| --- | --- |
| TATATTATAAACATATGTACATATGTATAAATACAT [XGTACX_site722] | 6.48 |
| ATTATTAATATTATATGTACGCACTATATCAAGGCT [XGTACX_site6468] | 6.78 |
| AACATATATATATACACACACATATATATATGAAAT [CACACA_site279] | 6.73 |
| TATACCAATGAATGAGTGCAAAGAAGATAAGGAAAA | 8.72 |
| AAGGTATTTATAACTACACACTTATTTATAACCTAA [CACACA_site6194] | 6.11 |
| AATAAAATGAAATGAAATAAAAAAAAAAAAAAAATG [TGCATGCA_negctrl_site305] | 6.39 |
| ACTTATTGTGGTTTTGCATGTAGCATTTTTACATAC [TGCATGCA_site247] | 7.08 |
| TATGAACATATATATTGTACAAAATTATAATTTCAA [XGTACX_site6406] | 6.41 |
| AGTTCAGAATTGAATAGTACATAAATATAACAAAAT [XGTACX_site650] | 6.76 |
| AAGCGAATCTATATCACACACAAAAAAATCAGACTA [CACACA_site7072] | 6.71 |
| AACTGATATTAATTCTGTACCTATACGTTATATGTT [XGTACX_site1003] | 6.32 |
| TTGTCATTATTATATTGTACAATAAGTATTAAAGAA [XGTACX_site1205] | 7.07 |
| TATATATATTCTTTGTGTACTCATATAAGGGTAGAA [XGTACX_site8121] | 6.87 |
| AATCAATATTATATATGTACTTATTTTCACTTTTGC [XGTACX_site1775] | 6.56 |
| TATTTAAATTAATATTGTACATATATTTATAATATA [XGTACX_site6109] | 6.42 |
| TTTATTTATATAATTACACACATATATACACAAATG [CACACA_site8903] | 6.83 |
| AAATATATTATATATGCATGCGCCAAGATTTATATA [TGCATGCA_site770] | 6.66 |
| AATAAACAAATAAATAAATAAACAGATAAATAAATC [CACACA_negctrl_site920] | 6.51 |
| GAGAACATTGATACACGTACATAAGTTATAAGTATT [XGTACX_site7665] | 6.26 |
